# Source: PubChem BioAssay (NCATS)
# Inconclusive means that the source gave no clear call. Such entries were picked first, then a sample of the others. For part of these data: Potencies of inconclusive entries are left out as doubtful fits. Active and inactive are the calls of the source. Unless noted, calls come from the whole dose curve; as a rule, active = well fitted curve in the direction sought with a large enough effect; inconclusive = small, poorly fitted or top-dose-only effect, or another doubt; inactive = no such curve, though single readings can be large; an effect the other way counts as inactive or inconclusive.
# Assays:
# [1] = biological target: Dual specificity protein kinase CLK4 (Homo sapiens) (UniProt Q9HAZ1); experiment: qHTS Assay for Inhibitors of CDC-like Kinase 4 (Kinase-Glo Assay) (AID 1770); note: nearly all actives have a fitted effect of over 65% in size; note: potency is the fitted concentration of half-maximal effect
# Outline: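 Substrate mix (RS peptide 100 uM, ATP 1 uM) dispensed, compound pinned in, then Clk4 added to 25 nM final. Incubated 4.5 h at RT; Kinase-Glo reagent added, luminescence read after 5 min.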
# [2] = biological target: Dual specificity protein kinase CLK4 (Homo sapiens) (UniProt Q9HAZ1); experiment: qHTS Assay for Inhibitors of CDC-like Kinase 4 (ADP-Glo Assay) (AID 1771); note: nearly all actives have a fitted effect of over 70% in size; note: potency is the fitted concentration of half-maximal effect
# Outline: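 Kinase reaction: Clk4 at 25 nM, RS repeat peptide substrate at 100 uM, ATP at 1 uM, 1 hr, room temperature. Product ADP detected as luciferase signal via ADP-Glo.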
# [3] = biological target: Ubiquitin carboxyl-terminal hydrolase 1 (Homo sapiens) (UniProt O94782); experiment: Inhibitors of USP1/UAF1: Pilot qHTS (AID 504865); note: potency is the fitted concentration of half-maximal effect;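 note: rhodamine fluorescence freed from ubiquitin-rhodamine substrate followed over time; nearly all actives have a fitted effect of over 35% in size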; for activity change, negative = inhibition: top concentration of the series differs between compounds; % is set by controls: 0 for no effect and ±100 for the full control effect
# Outline: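 In 50mM HEPES pH 7.8 containing 0.5mM EDTA, 1mM TCEP, 0.1 mg/ml BSA and 0.01% Tween-20, 1nM USP1/UAF1 is exposed to compound for 15 min, then Ub-Rho (150nM final) is added and fluorescence is read over time.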
# [4] = Primary qHTS for small molecule stabilizers of the endoplasmic reticulum resident proteome: Secreted ER Calcium Modulated Protein (SERCaMP) assay (AID 1508630); conditions: SH-SY5Y GLuc-SERCaMP (Gaussia luciferase released on ER calcium loss) secretion, thapsigargin, luminescence; activity change, negative = inhibition: at 38.4 µM (top of the series) unless noted; note: potency is the fitted concentration of half-maximal effect
# Outline: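 GLuc-SERCaMP-expressing SH-SY5Y cells, pretreated 16 h with compound, are challenged with thapsigargin to empty ER calcium stores; after 4 h, coelenterazine is added directly to the medium and luminescence is imaged.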
# [5] = qHTS Assay for Identification of Small Molecule Agonists for Hypoxia Response Element Signaling Pathway (AID 914; active = well fitted activation curve with a large enough effect in the signal ratio, with a control signal flat, not every such curve was filed as active; inconclusive = small, poorly fitted or top-dose-only effect, or effect the other way, or a change in a side signal; the % refers to the signal ratio; note: potency is the fitted concentration of half-maximal effect; for activation: top concentration of the series differs between compounds; % of control where 0% means no effect); conditions: ME-180 HRE-bla reporter, beta-lactamase ratio, CoCl2, 17 h; activation: stronger effect = higher value
# Outline: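 HRE-bla ME-180 cells, overnight plating in Opti-MEM with 0.5% dialyzed FBS; cpd titration + EC50 CoCl2, 17 h, 37 degrees Celsius; CCF4 2.5 h RT; 460/530 nm ratio; AC50.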
# [6] = biological target: 3',5'-cyclic-AMP phosphodiesterase 4B (Homo sapiens) (UniProt Q07343); experiment: qHTS Assay for Inhibitors of PDE-IV (AID 607; active = well fitted activation curve with a large enough effect in the main read-out, with a control signal flat, not every such curve was filed as active; inconclusive = small, poorly fitted or top-dose-only effect, or effect the other way, or a change in a side signal; note: potency is the fitted concentration of half-maximal effect; for activation (PDE inhibition): % of control where 0% means no effect); conditions: HEK293 ACTOne CNG channel cells, membrane potential fluorescence; activation (PDE inhibition): at 22.9 µM (top of the series)
# Outline: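 Live HEK293 cells with a modified cyclic nucleotide-gated (CNG) channel report intracellular cAMP via membrane-potential dye fluorescence (ex 535/em 590 nm). Endogenous PDE-IV was targeted. Compounds were tested at up to 22.9 uM final; RO 20-1724 100 uM served as control.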
# [7] = AP1 Signaling Pathway (AID 357; active = well fitted curve in either direction with a large enough effect, not every such curve was filed as active; inconclusive = small, poorly fitted or top-dose-only effect, or another doubt;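 note: ME-180 reporter cells stimulated with EGF at its EC50 level; top concentration of the series differs between compounds; % is set by controls: 0 for no effect and ±100 for the full control effect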); conditions: ME-180 AP-1-bla reporter, EGF-induced, beta-lactamase ratio, 5 h; at 7.69 µM (top of the series) unless noted
# Outline: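 Cells are seeded overnight, exposed to compound titrations and an EC50 level of EGF for 5 hours at 37 °C, then loaded with CCF4 dye for 2.5 hours. Beta-lactamase activity under the AP-1 element is read as a blue/green ratio.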
# [8] = NFAT Signaling Pathway (AID 444; active = well fitted curve in either direction with a large enough effect, not every such curve was filed as active; inconclusive = small, poorly fitted or top-dose-only effect, or another doubt;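 note: carbachol stimulus at about its EC50 of 1 µM final; % is set by controls: 0 for no effect and ±100 for the full control effect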); conditions: Jurkat NFAT-bla M1, carbachol, beta-lactamase ratio, 5 h; at 7.69 µM (top of the series) unless noted
# Outline: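 Jurkat cells carrying an NFAT-driven β-lactamase reporter and co-transfected muscarinic M1 receptor were treated with compound plus carbachol (1 uM final, an EC50 level) for 5 h at 37 °C. CCF4 loading followed for 1 h at RT; 460/530 nm ratio gave %activity.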
# [9] = Stat Signaling Pathway (AID 446; active = well fitted curve in either direction with a large enough effect, not every such curve was filed as active; inconclusive = small, poorly fitted or top-dose-only effect, or another doubt;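 note: ME-180 cervical cancer cells given 40 pM IL-6 alongside compound; SIE-controlled beta-lactamase reporter measured as 460/530 nm FRET emission ratio; top concentration of the series differs between compounds; % is set by controls: 0 for no effect and ±100 for the full control effect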); conditions: ME-180 (cervical carcinoma) SIE beta-lactamase reporter, IL-6 stimulated, 5 h; at 7.69 µM (top of the series) unless noted
# Outline: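 IL-6/STAT signaling read in ME-180 cells via an SIE beta-lactamase reporter. Stimulus was 40 pM IL-6 (its AC50) for 5 hrs, so both activation and inhibition register.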
# [10] = biological target: Mitogen-activated protein kinase 10 (Mus musculus) (UniProt Q61831); experiment: JNK3 AlphaScreen Assay (AID 530; active = well fitted curve in either direction with a large enough effect, not every such curve was filed as active; inconclusive = small, poorly fitted or top-dose-only effect, or another doubt;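 note: kinase came from lysate of stimulated human HepG2 cells; signal reports phosphorylation of biotinylated GST-cJun 1-79 at Ser73 with 10 µM ATP; potency is the fitted concentration of half-maximal effect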); conditions: JNK3 lysate, c-Jun phosphorylation; activity change, negative = inhibition: at 57.1 µM (top of the series)
# Outline: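 JNK3 came from HepG2 lysates pre-activated with IL-1beta and TNF-alpha and phosphorylated biotinylated GST-cJun (1-79) at 10 uM ATP, pH 7.6, room temperature. Compounds were titrated. AlphaScreen signal used anti-phospho-cJun (Ser73) antibody.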
# [11] = biological target: Cytochrome P450 1A2 (Homo sapiens) (UniProt P05177); experiment: p450-cyp1a2 (AID 410; calls by dose curve; note: potency is the fitted concentration of half-maximal effect)
# Outline: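 Inhibition was calculated relative to 57 uM furafylline (full inhibition). The reaction used human CYP1A2 at 20nM with Luciferin-ME at its Km, 100uM, driven by an NADPH-regenerating system for 60 min at room temperature.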
# [12] = biological target: Cytochrome P450 3A4 (Homo sapiens) (UniProt P08684); experiment: qHTS Assay for Inhibitors and Substrates of Cytochrome P450 3A4 (AID 884); conditions: recombinant CYP3A4, Luciferin-PPXE luminescence; activity change, negative = inhibition: at 57.1 µM (top of the series); note: potency is the fitted concentration of half-maximal effect; nearly all actives have a fitted effect of over 50% in size
# Outline: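 20 nM human CYP3A4 with 25 uM Luciferin-PPXE (at KM) in 200 mM KPO4, preincubated 10 min with compound; NADPH regeneration started a 60 min RT reaction. Luciferin detected by luminescence, normalized to 57 uM ketoconazole as full inhibition.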
# [13] = biological target: Cytochrome P450 2D6 (Homo sapiens) (UniProt P10635); experiment: qHTS Assay for Inhibitors and Substrates of Cytochrome P450 2D6 (AID 891);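 note: luciferin methyl ether substrate demethylated by CYP2D6 with NADPH regeneration; potency is the fitted concentration of half-maximal effect; nearly all actives have a fitted effect of over 60% in size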
# Outline: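 Human CYP2D6 (5 nM) with 30 uM Luciferin-ME EGE (at Km) in 100 mM KPO4, compound preincubated 10 min, then NADPH regeneration system for 60 min at room temperature. Luciferin read by luminescence; normalized to 1.43 uM quinidine.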
# Tags give direction and shape of the fitted curve or compound fluorescence and quenching.
# Sequence of UniProt O94782 (O94782 whole entry, looked up): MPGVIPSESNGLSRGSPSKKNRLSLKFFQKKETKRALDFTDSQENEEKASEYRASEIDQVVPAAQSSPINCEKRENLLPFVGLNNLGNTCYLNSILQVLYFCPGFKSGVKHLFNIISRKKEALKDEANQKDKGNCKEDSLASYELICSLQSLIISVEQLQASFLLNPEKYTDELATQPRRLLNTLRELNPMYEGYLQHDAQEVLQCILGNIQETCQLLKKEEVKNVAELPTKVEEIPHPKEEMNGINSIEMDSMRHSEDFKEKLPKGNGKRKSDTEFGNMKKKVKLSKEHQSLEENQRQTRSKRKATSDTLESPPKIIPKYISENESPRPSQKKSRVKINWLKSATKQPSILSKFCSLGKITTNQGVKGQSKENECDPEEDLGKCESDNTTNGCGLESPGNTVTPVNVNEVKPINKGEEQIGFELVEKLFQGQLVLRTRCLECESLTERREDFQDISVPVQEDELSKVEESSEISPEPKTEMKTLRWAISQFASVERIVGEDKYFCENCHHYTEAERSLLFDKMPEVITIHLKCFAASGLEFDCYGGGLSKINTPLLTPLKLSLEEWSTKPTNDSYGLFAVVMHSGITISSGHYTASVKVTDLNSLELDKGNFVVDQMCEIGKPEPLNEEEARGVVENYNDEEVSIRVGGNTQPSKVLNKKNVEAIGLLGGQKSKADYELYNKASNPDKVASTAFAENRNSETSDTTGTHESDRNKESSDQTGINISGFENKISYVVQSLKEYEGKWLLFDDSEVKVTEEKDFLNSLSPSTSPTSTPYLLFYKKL
# Sequence of UniProt Q9HAZ1 (Q9HAZ1 whole entry, looked up): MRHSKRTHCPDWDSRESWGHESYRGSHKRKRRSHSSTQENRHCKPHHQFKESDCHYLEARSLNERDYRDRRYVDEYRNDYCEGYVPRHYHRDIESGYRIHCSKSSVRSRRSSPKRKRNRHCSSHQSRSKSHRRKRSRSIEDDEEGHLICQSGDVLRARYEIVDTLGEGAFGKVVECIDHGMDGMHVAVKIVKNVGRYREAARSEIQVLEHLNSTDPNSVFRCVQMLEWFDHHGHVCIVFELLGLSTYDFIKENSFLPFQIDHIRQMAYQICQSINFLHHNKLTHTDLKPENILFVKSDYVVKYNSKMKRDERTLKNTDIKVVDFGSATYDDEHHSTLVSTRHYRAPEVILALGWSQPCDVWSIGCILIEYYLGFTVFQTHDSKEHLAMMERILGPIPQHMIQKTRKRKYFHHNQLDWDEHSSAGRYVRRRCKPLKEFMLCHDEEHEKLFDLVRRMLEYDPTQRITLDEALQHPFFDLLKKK
# Sequence of UniProt Q07343 (Q07343 whole entry, looked up): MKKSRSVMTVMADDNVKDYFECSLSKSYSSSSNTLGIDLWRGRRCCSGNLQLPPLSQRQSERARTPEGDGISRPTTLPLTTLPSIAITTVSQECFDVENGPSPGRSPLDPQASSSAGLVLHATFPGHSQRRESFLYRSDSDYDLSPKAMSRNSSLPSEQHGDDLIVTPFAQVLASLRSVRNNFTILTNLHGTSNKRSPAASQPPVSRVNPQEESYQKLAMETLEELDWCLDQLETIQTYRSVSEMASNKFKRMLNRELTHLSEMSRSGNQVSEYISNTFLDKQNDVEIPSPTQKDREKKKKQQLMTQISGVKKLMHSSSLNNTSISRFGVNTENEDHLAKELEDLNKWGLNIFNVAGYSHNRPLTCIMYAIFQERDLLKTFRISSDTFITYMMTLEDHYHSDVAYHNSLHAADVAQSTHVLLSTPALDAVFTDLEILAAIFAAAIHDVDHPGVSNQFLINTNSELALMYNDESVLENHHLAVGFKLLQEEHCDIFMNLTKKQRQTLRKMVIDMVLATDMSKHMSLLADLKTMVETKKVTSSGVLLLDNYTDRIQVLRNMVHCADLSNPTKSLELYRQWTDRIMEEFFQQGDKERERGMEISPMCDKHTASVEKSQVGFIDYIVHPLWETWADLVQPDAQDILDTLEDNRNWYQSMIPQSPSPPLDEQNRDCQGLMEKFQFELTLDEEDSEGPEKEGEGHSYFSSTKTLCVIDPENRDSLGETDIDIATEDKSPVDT
# Sequence of UniProt P05177 (P05177 whole entry, looked up): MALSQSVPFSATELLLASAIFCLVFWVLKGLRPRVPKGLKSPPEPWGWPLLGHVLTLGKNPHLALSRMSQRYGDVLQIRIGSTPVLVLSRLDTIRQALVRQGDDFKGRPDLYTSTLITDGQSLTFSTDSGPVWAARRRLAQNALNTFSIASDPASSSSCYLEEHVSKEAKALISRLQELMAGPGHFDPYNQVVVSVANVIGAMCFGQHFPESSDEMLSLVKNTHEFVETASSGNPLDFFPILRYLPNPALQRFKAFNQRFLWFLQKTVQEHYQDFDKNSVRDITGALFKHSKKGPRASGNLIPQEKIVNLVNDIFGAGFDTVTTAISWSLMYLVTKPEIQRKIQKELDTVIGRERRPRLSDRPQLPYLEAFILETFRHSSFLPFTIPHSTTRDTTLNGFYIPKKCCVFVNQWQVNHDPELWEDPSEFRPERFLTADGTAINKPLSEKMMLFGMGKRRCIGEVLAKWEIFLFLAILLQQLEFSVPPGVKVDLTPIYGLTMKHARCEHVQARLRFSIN
# Sequence of UniProt P10635 (P10635 whole entry, looked up): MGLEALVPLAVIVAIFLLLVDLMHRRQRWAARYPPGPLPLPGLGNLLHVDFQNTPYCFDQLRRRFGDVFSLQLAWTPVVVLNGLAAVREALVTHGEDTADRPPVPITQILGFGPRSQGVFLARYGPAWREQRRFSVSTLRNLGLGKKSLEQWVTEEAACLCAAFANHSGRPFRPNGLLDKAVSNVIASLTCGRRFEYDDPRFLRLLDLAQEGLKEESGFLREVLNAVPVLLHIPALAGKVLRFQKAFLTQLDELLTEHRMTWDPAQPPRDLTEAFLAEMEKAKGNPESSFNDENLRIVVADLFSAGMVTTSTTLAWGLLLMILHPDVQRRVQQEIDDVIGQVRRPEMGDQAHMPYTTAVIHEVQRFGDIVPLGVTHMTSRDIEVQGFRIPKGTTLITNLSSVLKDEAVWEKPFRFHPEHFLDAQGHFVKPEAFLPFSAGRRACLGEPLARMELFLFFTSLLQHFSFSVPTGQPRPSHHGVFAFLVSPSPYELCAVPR
# Sequence of UniProt P08684 (P08684 whole entry, looked up): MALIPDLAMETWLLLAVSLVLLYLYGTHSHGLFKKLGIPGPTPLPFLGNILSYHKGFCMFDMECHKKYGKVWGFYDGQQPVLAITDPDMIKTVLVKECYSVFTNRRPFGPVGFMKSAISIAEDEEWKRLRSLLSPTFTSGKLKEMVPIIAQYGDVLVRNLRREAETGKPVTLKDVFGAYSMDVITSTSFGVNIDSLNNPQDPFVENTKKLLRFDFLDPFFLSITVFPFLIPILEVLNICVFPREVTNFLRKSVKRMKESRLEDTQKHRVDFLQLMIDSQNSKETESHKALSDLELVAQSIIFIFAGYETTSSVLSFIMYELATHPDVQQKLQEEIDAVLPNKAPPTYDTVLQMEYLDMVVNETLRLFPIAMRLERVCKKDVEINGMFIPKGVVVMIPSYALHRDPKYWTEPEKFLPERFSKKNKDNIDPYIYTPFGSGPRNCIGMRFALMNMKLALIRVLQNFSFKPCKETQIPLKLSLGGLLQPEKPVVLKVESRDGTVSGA
smiles,measurement,setting,value
Cc1cnc(CNc2cc(-c3ccccc3C)ncn2)cn1,Potency,[1],"inconclusive [falling, partial curve]"
same,Potency,[2],"inconclusive [falling, partial curve]"
same,Potency,[3],inactive
same,Potency,[4],inactive
CN(C)Cc1ccccc1-c1ccc2ncnc(N(C)C)c2c1,activation,[5],inconclusive: -33.6%
same,Potency,[1],"inconclusive [falling, single point]"
same,Potency,[2],"inconclusive [falling, single point]"
same,Potency,[4],"inconclusive [inhibitor, single point]"
COCCNc1nc(-c2ccc(C(=O)N(C)C)cc2)nc2ccccc12,Potency,[1],"inconclusive [falling, partial curve]"
same,Potency,[2],"inconclusive [falling, partial curve]"
same,Potency,[3],"inconclusive [inhibitor, partial curve, poor fit]"
same,Potency,[4],"inconclusive [inhibitor, single point]"
CN1CCN(c2ccnc(-c3ccc(N(C)C)cc3)n2)CC1,Potency,[6],inactive
same,activation,[5],inactive: 1.71%
same,Potency,[1],"inconclusive [falling, single point]"
same,Potency,[2],"inconclusive [falling, single point]"
same,Potency,[4],"inconclusive [inhibitor, single point]"
CN(C)c1ncc2nc(-c3ccccc3)c(=O)n(Cc3cccs3)c2n1,"activity change, negative = inhibition",[7],inconclusive: 126% [activator]
same,"activity change, negative = inhibition",[8],inconclusive: 164% [activator]
same,"activity, negative = inhibition",[9],inconclusive: 228% [activator]
same,Potency,[10],"inconclusive [activator, partial curve]"
same,Potency,[6],"inconclusive [activator, single point]"
same,Potency,[5],active: 3.16 µM
same,Potency,[1],inactive
same,Potency,[4],inactive
COc1cccc(Cn2c(=O)cnc3cnc(N(C)C)nc32)c1,Potency,[11],active: 6.31 µM
same,Potency,[6],"inconclusive [activator, partial curve]"
same,Potency,[1],"inconclusive [falling, partial curve]"
same,Potency,[4],"inconclusive [inhibitor, single point]"
COc1ccccc1-c1ccc2ncnc(NCc3ccccc3)c2c1,Potency,[6],"inconclusive [rising, partial curve]"
same,Potency,[5],"inconclusive [inhibitor, partial curve]"
same,Potency,[1],active: 3.98 µM
same,Potency,[2],active: 6.31 µM
same,Potency,[4],"inconclusive [inhibitor, single point]"
O=c1c(-c2cccs2)nc2cnc(N3CCNCC3)nc2n1C1CC1,Potency,[2],"inconclusive [falling, single point]"
same,Potency,[4],"inconclusive [inhibitor, full curve, poor fit]"
CCNc1ncc2nc(CCc3ccccc3)c(=O)n(Cc3cccc(OC)c3)c2n1,Potency,[6],"inconclusive [activator, single point]"
same,Potency,[12],"inconclusive [inhibitor, partial curve]"
same,activation,[5],inconclusive: -29.7%
same,Potency,[1],inactive
same,Potency,[4],"inconclusive [inhibitor, single point]"
Fc1ccc(Nc2ccnc(-c3ccccc3C(F)(F)F)n2)cc1,Potency,[1],inactive
same,Potency,[3],"inconclusive [inhibitor, partial curve, poor fit]"
same,Potency,[4],"inconclusive [inhibitor, partial curve, poor fit]"
CN(Cc1ccco1)c1cc(-c2ccc3c(c2)OCO3)ncn1,Potency,[6],"inconclusive [activator, partial curve]"
same,Potency,[1],active: 2 µM
same,Potency,[4],"inconclusive [inhibitor, single point]"
CS(=O)(=O)Nc1cccc(-c2nc(NC3CC3)c3ccccc3n2)c1,Potency,[2],active: 10 µM
same,Potency,[4],"inconclusive [inhibitor, single point]"
COCCn1c(=O)c(-c2ccc(Cl)cc2)nc2cnc(Oc3cccc(Cl)c3)nc21,Potency,[2],inactive
same,Potency,[4],inactive
CN1CCN(c2ncc3nc(-c4ccccc4)c(=O)n(Cc4cccs4)c3n2)CC1,"activity change, negative = inhibition",[8],inactive: -9.53%
same,Potency,[10],"inconclusive [activator, partial curve]"
same,Potency,[1],inactive
same,Potency,[4],"inconclusive [inhibitor, single point]"
c1cncc(CNc2ncncc2-c2cccnc2)c1,Potency,[2],inactive
same,Potency,[4],inactive
Cc1ccccc1-c1nc(Nc2ccncc2)c2ccccc2n1,Potency,[6],"inconclusive [activator, partial curve]"
same,Potency,[1],"inconclusive [falling, partial curve]"
same,Potency,[3],"inconclusive [inhibitor, partial curve, poor fit]"
same,Potency,[4],"inconclusive [inhibitor, single point]"
COc1cccc(-c2nc(NC3CC3)c3ccccc3n2)c1,Potency,[6],"inconclusive [activator, partial curve]"
same,Potency,[13],active: 7.94 µM
same,Potency,[1],active: 7.08 µM
same,Potency,[3],"inconclusive [inhibitor, partial curve, poor fit]"
same,Potency,[4],"inconclusive [inhibitor, single point]"
